Results published in US5773569A (Affymax Technologies N.V., priority 1995, dated 1998).
Not every detail of the peptide structures is certain; ends, links or a residue may be inferred. Residues, ends and D or L forms follow the SMILES beside them.

Key:
murine bone marrow cells = assay: Colony assay, murine bone marrow; assay type: cell-based
Protocol: G. Colony Assay: Murine Bone Marrow and Human Peripheml Blood Colony Assay
A ten milliliter sample of peripheral blood was obtained from a healthy individual in a standard sterile heparin vacutainer tube. Murine bone marrow was obtained from the femurs of approximately 10 mice per experiment. All reagents were obtained from Stem Cell Technologies Inc. (Vancouver, Canada).
a. Experimental Protocol: Briefly, a nucleated cell count was performed to establish the number and concentration of nucleated cells in the original sample. In the case of peripheral blood, the sample is subjected to centrifugation through a Ficoll-Hypaque (1.077 g per ml) gradient at 400 g for 30 minutes at room temperature. Mononuclear cells at the interface of the Ficoll-Hypaque solution are carefully removed and diluted to a total volume of about 10 ml. The cells obtained from murine bone marrow or human peripheral blood were collected by centrifugation and the supernatant was decanted. The pelleted cells were resuspended in fresh medium and subjected to collection as described above. The washed cells were diluted in Iscove's medium/2% fetal bovine serum to the following concentration for plating:
Normal marrow: 1×10^5 light density cells
Cells were added to methyl cellulose per directions of the manufacturer. […] Equivalent cell numbers were plated in "Complete" methylcellulose medium to assess maximal colony formation. A control plate was run with each assay minus EPO and peptide to determine background colony formation. Colonies were scored after both 10 days and 18 days of incubation.

[1] = target: T1, truncated human erythropoietin receptor cell line (Homo sapiens, UniProt P19235); details: Tables 20-21; IA = inactive
T1 sequence (P19235 25-468 limits assumed): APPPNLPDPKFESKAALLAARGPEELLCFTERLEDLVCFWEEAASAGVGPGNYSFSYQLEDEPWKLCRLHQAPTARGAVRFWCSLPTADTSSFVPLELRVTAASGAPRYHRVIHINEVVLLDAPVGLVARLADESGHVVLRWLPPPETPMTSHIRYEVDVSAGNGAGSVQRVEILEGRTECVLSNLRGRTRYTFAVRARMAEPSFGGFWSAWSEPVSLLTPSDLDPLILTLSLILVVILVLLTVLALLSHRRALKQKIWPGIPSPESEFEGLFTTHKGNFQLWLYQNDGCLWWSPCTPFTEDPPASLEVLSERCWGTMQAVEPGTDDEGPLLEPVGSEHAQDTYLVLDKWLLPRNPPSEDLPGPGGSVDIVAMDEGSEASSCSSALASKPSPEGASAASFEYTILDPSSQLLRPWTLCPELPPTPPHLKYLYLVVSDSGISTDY

FDCP-1/muER cells = assay: Peptide-induced initiation of cell cycle measured by DNA content; assay type: cell-based, murine; details: 1×10^-5 M; ten hours postinduction; medium control 15%
Protocol: F. Cellular response kinetics: Peptide-Induced Initiation of Cell Cycle Measured By DNA Content
1. Experimental Protocol: FDCP-1/muER cells were grown to stationery phase ≈3.0×10^6 cells/ml. […] Three million cells were collected at the following time points: 0, 6, 8, 10, and 12 hr. (see, FIG. 15). Cells were washed twice in cold PBS and fixed by resuspending the cell pellet in 100 μl of cold PBS followed by 900 μl of cold 70% ethanol. Cells were stained with 50 μg/ml of propidium iodine and fluorescence was measured on FACS Scan Flow cytometer. The percentage of cells in each phase was measured using the SOBR model of CelIFIT software, by Becton Dickinson.

[2] = Table 14 (1/28/94), 2/10/94, 10^-5 M
[3] = Table 14 (1/28/94), 2/10/94, 10^-6 M
[4] = Table 14 (1/28/94), 2/21/94, 10^-5 M
[5] = Table 14 (1/28/94), 2/21/94, 10^-6 M
[6] = Table 15 (2/21/94), 3/1/94, 10^-5 M
[7] = Table 15 (2/21/94), 3/1/94, 10^-6 M
[8] = Table 15 (2/21/94), 3/14/94, 10^-5 M
[9] = Table 15 (2/21/94), 3/14/94, 10^-6 M

Q: Which “BFU-E colony-forming cell numbers” value (murine bone marrow cells; [2]) does the source give for `CC(C)C[C@@H]1NC(=O)[C@@H]2CCCN2C(=O)CNC(=O)[C@H](Cc2ccccc2)NC(=O)[C@H](Cc2c[nH]cn2)NC(=O)[C@@H](NC(=O)[C@H](CO)NC(=O)[C@H](Cc2ccc(O)cc2)NC(=O)[C@@H](NC(=O)CNC(=O)CN)[C@@H](C)O)CSSC[C@@H](C(=O)N[C@@H](CCCCN)C(=O)N2CCC[C@H]2C(=O)N[C@@H](CCC(N)=O)C(=O)NCC(=O)NCC(N)=O)NC(=O)[C@H](C(C)C)NC(=O)[C@H](Cc2c[nH]c3ccccc23)NC(=O)[C@H]([C@@H](C)O)NC1=O` [RWJ 61233] (HELM PEPTIDE1{G.G.T.Y.S.C.H.F.G.P.L.T.W.V.C.K.P.Q.G.G.[am]}$PEPTIDE1,PEPTIDE1,6:R3-15:R3$$$V2.0) here?
A: 0

Q: And the “CFU-E colony-forming cell numbers” value (murine bone marrow cells; [2])?
A: 2

Q: What about the “CFU-GM colony-forming cell numbers” value (murine bone marrow cells; [2]) of the same compound?
A: 0

Q: And the “BFU-E colony-forming cell numbers” value (murine bone marrow cells; [3])?
A: 0

Q: And the “CFU-E colony-forming cell numbers” value (murine bone marrow cells; [3])?
A: 3

Q: What about the “CFU-GM colony-forming cell numbers” value (murine bone marrow cells; [3]) of the same compound?
A: 0

Q: What about the “BFU-E colony-forming cell numbers” value (murine bone marrow cells; [4]) of the same compound?
A: 2

Q: What about the “CFU-E colony-forming cell numbers” value (murine bone marrow cells; [4]) of the same compound?
A: 0

Q: And the “CFU-GM colony-forming cell numbers” value (murine bone marrow cells; [4])?
A: 0

Q: And the “BFU-E colony-forming cell numbers” value (murine bone marrow cells; [5])?
A: 4

Q: What about the “CFU-E colony-forming cell numbers” value (murine bone marrow cells; [5]) of the same compound?
A: 0

Q: What about the “CFU-GM colony-forming cell numbers” value (murine bone marrow cells; [5]) of the same compound?
A: 0

Q: And the “BFU-E colony-forming cell numbers” value (murine bone marrow cells; [6])?
A: 12

Q: And the “CFU-E colony-forming cell numbers” value (murine bone marrow cells; [6])?
A: 9

Q: And the “CFU-GM colony-forming cell numbers” value (murine bone marrow cells; [6])?
A: 0

Q: And the “BFU-E colony-forming cell numbers” value (murine bone marrow cells; [7])?
A: 0

Q: What about the “CFU-E colony-forming cell numbers” value (murine bone marrow cells; [7]) of the same compound?
A: 0

Q: And the “CFU-GM colony-forming cell numbers” value (murine bone marrow cells; [7])?
A: 0

Q: What about the “CFU-E colony-forming cell numbers” value (murine bone marrow cells; [8]) of the same compound?
A: 1

Q: What about the “CFU-GM colony-forming cell numbers” value (murine bone marrow cells; [8]) of the same compound?
A: 0

Q: What about the “MBFU-E colony-forming cell numbers” value (murine bone marrow cells; [8]) of the same compound?
A: 4

Q: What about the “PBFU-E colony-forming cell numbers” value (murine bone marrow cells; [8]) of the same compound?
A: 8

Q: And the “CFU-E colony-forming cell numbers” value (murine bone marrow cells; [9])?
A: 0

Q: What about the “CFU-GM colony-forming cell numbers” value (murine bone marrow cells; [9]) of the same compound?
A: 0

Q: What about the “MBFU-E colony-forming cell numbers” value (murine bone marrow cells; [9]) of the same compound?
A: 0

Q: What about the “PBFU-E colony-forming cell numbers” value (murine bone marrow cells; [9]) of the same compound?
A: 0

Q: What about the “EPO-ED50 (μM)* truncated human receptor” value [1] of the same compound?
A: 0.1 µM

Q: What about the “cells in S phase” value (FDCP-1/muER cells) of the same compound?
A: approximately 45%
